In PMC6919601, “Identification of Plasmodium dipeptidyl aminopeptidase allosteric inhibitors by high throughput screening” (PLoS ONE, 2019):
About 230 (0.21%) of roughly 110,000 compounds showed an effect of 50% or more. This is one part of the list.

Molecular target: DPAP1 (Plasmodium falciparum, UniProt Q8IIJ9)
Test: primary screen, percent inhibition; read by cleavage of a fluorogenic dipeptide substrate; higher = more effect of the substance
Parameters: species or system P. falciparum D10 trophozoite lysates; single well
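Also: 30 min substrate incubation versus DMSO and 10 µM JCP410 controls.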

Chain of DPAP1 (Q8IIJ9 whole entry, looked up): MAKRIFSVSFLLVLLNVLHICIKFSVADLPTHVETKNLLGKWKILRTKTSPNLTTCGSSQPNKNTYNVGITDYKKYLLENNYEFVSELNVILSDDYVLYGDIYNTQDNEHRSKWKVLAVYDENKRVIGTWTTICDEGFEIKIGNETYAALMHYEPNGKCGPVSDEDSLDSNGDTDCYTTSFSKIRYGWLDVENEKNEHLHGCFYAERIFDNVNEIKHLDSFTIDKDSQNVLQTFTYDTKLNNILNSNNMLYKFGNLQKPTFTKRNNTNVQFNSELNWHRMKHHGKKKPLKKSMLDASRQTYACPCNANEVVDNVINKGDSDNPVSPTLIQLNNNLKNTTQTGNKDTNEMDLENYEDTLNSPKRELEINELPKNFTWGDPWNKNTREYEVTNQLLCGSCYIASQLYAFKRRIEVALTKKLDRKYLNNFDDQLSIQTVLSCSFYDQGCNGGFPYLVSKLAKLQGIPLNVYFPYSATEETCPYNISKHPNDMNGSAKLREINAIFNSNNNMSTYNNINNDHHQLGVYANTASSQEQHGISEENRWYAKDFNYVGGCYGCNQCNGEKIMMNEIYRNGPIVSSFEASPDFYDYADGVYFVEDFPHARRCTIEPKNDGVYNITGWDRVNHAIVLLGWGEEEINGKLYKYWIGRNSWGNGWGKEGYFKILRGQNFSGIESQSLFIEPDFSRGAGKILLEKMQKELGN

| SMILES | % Inhibition @ 10 uM [%] |
| --- | --- |
| Cc1cccc2c1-c1sc(C(=O)Nc3nccs3)cc1CO2 | -4.85 |
| CN1CCC(N2CCN(c3ncccn3)CC2)CC1 | 2.1 |
| COc1ccc(/C=C2\N=C(c3ccc(OC)cc3Br)OC2=O)cc1 | 0.264 |
| CCCc1cc(N2CCN(c3ccccn3)CC2)n2cnnc2n1 | -3.49 |
| Cc1nc2cc(S(=O)(=O)N(C)C)ccc2n1-c1ccccc1 | 2.94 |
| CCOC(=O)c1c(NC(=S)NCc2ccccc2)sc2c1CCC1(CCCCC1)C2 | -2.15 |
| CCN(C1CCCCC1)S(=O)(=O)c1cc(OC)c(Cl)cc1OC | 3.79 |
| COc1ccc(N2C(=O)C3C(c4ccccc4F)OC4(C(=O)c5ccccc5C4=O)C3C2=O)cc1 (centres unmarked) | 3.69 |
| Cn1c(=O)c2c(nc(N3CCCCC3)n2CCCNC2=NCCCC2)n(C)c1=O | -3.63 |
| COc1ccc(Nc2nc3cc(C)ccc3cc2C)cc1 | 1.83 |
| COCCNC(=O)c1cc(-c2ccc(F)cc2)on1 | -5.52 |
| CC(C)CCNC(=O)c1ccc(CS(=O)(=O)c2cccc(C(F)(F)F)c2)o1 | -1.28 |
| c1cc2c(cc1CCNC1CCCCC1)OCO2 | -1.54 |
| CC(=O)Nc1ccc(S(=O)(=O)Nc2ccc(C(C)C)cc2)cc1 | 4.67 |
| Cc1ccc(CNC(=O)CCS(=O)(=O)c2cccc3nonc23)cc1 | 2.74 |
| COc1cccc(C(=O)N(Cc2ccccc2F)C2CCS(=O)(=O)C2)c1 (centres unmarked) | -8.82 |
| Nc1nonc1-c1noc(C23CC4CC(CC(C4)C2)C3)n1 | 0.206 |
| Cc1ccc(C(=N)NOC(=O)/C=C/c2ccccc2)cc1 | -5 |
| CCN1CCc2[nH]c3ccccc3c2C1 | 2.47 |
| CC1(C)CC(c2ccc([N+](=O)[O-])cc2)OC(c2ccccc2)=N1 (centres unmarked) | 3.06 |
| COC(=O)C1=CN(C2CC2)C=C(C(=O)OC)C1c1ccc(C(F)(F)F)cc1 | 2.56 |
| CC12CC(NC(=O)N1CCc1ccccc1)c1ccccc1O2 (centres unmarked) | 4.14 |
| CCc1nn(-c2cc(Oc3ccc(C)c(C)c3)nc(SC)n2)c(N)c1C(N)=O | 0.583 |
| Cc1sc2nc(-c3ccc(-c4ccc(C(=O)O)cc4)o3)nc(O)c2c1C | 17.1 |
| Cc1ccc(Oc2nc3ccccn3c(=O)c2/C=C(\C#N)C(=O)N2CCCCC2)cc1 | 0.189 |
| CCc1cccc2c1NC(=O)/C2=C1\SC(N)=NC1=O | -1.79 |

| SMILES | % Inhibition @ 10 uM [%] |
| --- | --- |
| NC(=O)CN(Cc1ccccc1Cl)S(=O)(=O)c1ccc(Br)cc1 | -2.98 |
| O=C(NC(=O)c1cccc2ccccc12)Nc1ccccc1Br | 6.53 |
| CCOc1ccc(/C=C/C(O)=C2/C(=O)NC34CCCCC3C2c2ccccc2O4)cc1OC (centres unmarked) | 0.569 |
| O=C(COc1ccc2ccccc2c1Br)Nc1ccc(F)cc1 | 4.49 |
| Cc1ccc(C(C(=O)NC2CCCC2)N(C)CCC#N)cc1 (centres unmarked) | 0.457 |
| Cc1ccccc1/C=C1\CCc2ccccc2C1=O | 1.83 |
| CCN(CC)C(=O)C1CCCN(Cc2ccccc2)C1 (centres unmarked) | 1.48 |
| Cn1nnnc1SCCNCc1ccc(-c2ccccc2)o1 | 1.67 |
| CC1(C)CC(=O)C(C(c2ccc(Cl)cc2Cl)C2C(=O)CC(C)(C)CC2=O)C(=O)C1 | 5.7 |
| O=[N+]([O-])c1ccc(-c2[nH]nc(-c3ccccc3)c2-c2nc3ccccc3[nH]2)cc1 | 1.88 |
| O=C(NC1CCCCC1)c1cc(-c2cccnc2)nc2ccccc12 | 2.79 |
| CC1CC(C)CN(C(=O)CCn2nc(-c3ccccc3)ccc2=O)C1 (centres unmarked) | -0.0542 |
| COc1ccc(CC(=O)N2CCCC2)cc1 | -6.82 |
| Cc1c(C(=O)NCc2ccc(F)cc2)sc2ncn(CC(=O)N3CCCC(C)C3)c(=O)c12 (centres unmarked) | -3.23 |
| Cc1cc(C)c(S(=O)(=O)Nc2cccc(Cl)c2C)c(C)c1 | -3.04 |
| CC(C)(C)c1ccc(C(=O)N2CCN(c3ccccc3F)CC2)cc1 | 0.528 |
| COc1ccc(CN2CCCN(C)CC2)cc1C | -3.65 |
| CCOc1ccc(-c2nc(SCC(=O)NCc3ccco3)c(-c3ccccc3)[nH]2)cc1 | -1.58 |
| Cc1cc(Cl)ccc1-n1c(S)nnc1CN1CCSCC1 | 3.48 |
| c1ccc(-c2csc(Nc3ncccn3)n2)cc1 | 4.22 |
| COc1ccc(-n2nc3c(c2NC(=O)CCc2ccccc2)CS(=O)(=O)C3)cc1 | 5.07 |
| CCOC(=O)c1c(NC(=O)c2ccc(Cl)cc2)sc2c1CCCC2 | -5.5 |
| COc1ccc(CCNC(=O)c2cc(=O)n(C)c(=O)n2C)cc1OC | 2.99 |
| CCCCCNS(=O)(=O)c1ccc(Br)cc1 | -1.77 |
| CC(=O)c1cc(F)c(N2CCOCC2)cc1C | 0.177 |
| Cc1cccc(-c2nnc3sc(NC(=O)C(C)Oc4ccccc4)nn23)c1 (centres unmarked) | 1.1 |

| SMILES | % Inhibition @ 10 uM [%] |
| --- | --- |
| COc1ccc(C(=O)Nc2ccc(Br)cc2F)cc1OC | -5.1 |
| CCCC(C)c1c(O)n(CC)c(=S)[nH]c1=O (centres unmarked) | 6.41 |
| O=C(O)CCCCCNc1ncnc2ccccc12 | 6.42 |
| CS(=O)(=O)N1CCC(C(=O)NCCc2ccc(Cl)cc2)CC1 | 5.23 |
| N#C/C(=C\c1ccc(-c2ccc(Cl)cc2)o1)c1nn(CCO)c(N)c1C#N | 7.24 |
| O=C(NCCC1=CCCCC1)C1CCCN1S(=O)(=O)c1cccc2nsnc12 (centres unmarked) | -4.1 |
| CC1(C)CC(NC(=O)c2cccs2)CC(C)(C)N1 | -0.305 |
| O=c1[nH]c(=O)n(-c2nc(-c3ccccc3)oc2-c2ccccc2)cc1Cl | 2.45 |
| O=C(/C=C/c1ccc(Cl)cc1)NC1CCCCC1 | 1.35 |
| COc1ccc(/C=C(\NC(=O)c2ccco2)C(=O)NC(CCSC)C(=O)O)cc1 (centres unmarked) | 7.1 |
| COc1ccccc1/C=c1\sc2nc(=O)c(C)nn2c1=O | 5.12 |
| CCOc1ccccc1C(=O)Nc1ccc(Oc2ccc(C(=O)O)c(C(=O)O)c2)cc1 | 9.79 |
| CN1C(=O)/C(=C2/C(=O)Nc3ccccc32)S/C1=N/c1ccc(Cl)cc1 | 7.34 |
| Cc1ccc(-c2cc(C(F)F)n3ncc(C(=O)NCCCn4ccnc4)c3n2)cc1 | 4.08 |
| c1ccc2c(Cc3c[nH]c4ccccc34)c[nH]c2c1 | -0.0372 |
| O=C(CCS(=O)CCC(=O)NCCc1ccccc1)NCCc1ccccc1 | -0.169 |
| CCOc1ccc(C2C3=C(O)CCCC3=Nc3nc(SC)nn32)cc1OC (centres unmarked) | 0.0842 |
| CCc1ccc2nc(N3CCC(C(=O)NCc4ccc5c(c4)OCO5)CC3)sc2c1 | -5.51 |
| COc1cc(C(=O)Nc2c3c(nn2-c2ccc(Cl)cc2)CS(=O)(=O)C3)cc(OC)c1OC | 2.94 |
| CCc1c(C)sc(NC(=O)c2cc(Cl)ccc2OC)c1C(N)=O | 3.65 |
| C=CCSc1nnc(-c2ccc(Cl)cc2Cl)o1 | 4.03 |
| Cc1ccc(-c2cc(N)n(CC3CCCCC3)n2)cc1 | 0.24 |
| O=C(c1ccc2ccccc2c1)N1CCN(c2ccccc2)CC1 | 1.64 |
| CCCOc1ccc(/C=c2\sc3nc(=O)c(C)nn3c2=O)cc1 | -4.93 |
| Cc1ccc(C(=O)N(C)c2ccccc2)cc1 | 3.53 |
| CC(CNC(=O)C1CCCN(S(=O)(=O)N2CCCCC2)C1)c1ccccc1 (centres unmarked) | -1.09 |

| SMILES | % Inhibition @ 10 uM [%] |
| --- | --- |
| CCOC(=O)c1c(/N=C/C2C(=O)CCCC2=O)sc(C)c1C | 0.408 |
| O=C(CN1CCCCC1)Nc1c2c(nc3c1CCC3)CCC2 | -2.74 |
| COc1ccc(CSc2nc3ccccc3s2)cc1 | 1.38 |
| Cc1ccc(S(=O)(=O)NCC(c2ccccc2)N2CCN(Cc3ccc4c(c3)OCO4)CC2)cc1 (centres unmarked) | -0.671 |
| CCSc1cc(N2CCOCC2)nc(-c2ccccc2Cl)n1 | -6.67 |
| O=C(CCCNS(=O)(=O)c1ccccc1)NCc1ccco1 | -4.35 |
| O=C(NCc1ccccc1F)c1cc2nc(-c3cccs3)cc(C(F)(F)Cl)n2n1 | -3.04 |
| CCN(CC)C(=O)CN(Cc1ccccc1Cl)S(=O)(=O)c1ccc(Br)cc1 | -1.09 |
| O=C(Cc1ccc2sc(-c3ccccc3)nc2c1)NCc1ccccc1 | -11.1 |
| CCCCOc1ccc(C2C(C(=O)OCC)=C(N)OC3=C2C(=O)CCC3)cc1 (centres unmarked) | -4.18 |
| Clc1ccccc1N1CCN(CC2CC3C=CC2C3)CC1 (centres unmarked) | -5.11 |
| CCCCn1c(Oc2ccc(C(=O)OC)cc2)nc2c1c(=O)n(C)c(=O)n2C | 2.17 |
| CC1=C(C(=O)Nc2ccc(C)cc2)C(c2ccc(O)cc2)NC(S)=N1 (centres unmarked) | -0.233 |
| NS(=O)(=O)c1ccc(CCNC(=O)C2CCCN(c3ncnc4c3nc3n4CCCCC3)C2)cc1 (centres unmarked) | 4.83 |
| O=C(Cn1cnc2c(nnn2Cc2ccc(F)cc2)c1=O)NCc1ccco1 | -0.644 |
| CC(C)=CCc1c2c(c3occ(-c4ccc(O)cc4)c(=O)c3c1O)C=CC(C)(C)O2 | -1.25 |
| Cc1ccc(S(=O)(=O)N2CCN(c3nc(C)nc4sc5c(c34)CCCC5)CC2)cc1 | -19.7 |
| Cc1cccc(NC(=O)Cn2cnc3ccccc3c2=O)c1C | -1.28 |
| CC(C)CC(C(=O)N1CCOCC1)N1C(=O)c2cc(Cl)c(Cl)cc2C1=O (centres unmarked) | 0.674 |
| CCOc1cc(CNC(=O)C2CCCN(c3nnc(-n4cccc4)s3)C2)cc(OCC)c1OCC (centres unmarked) | -2.35 |
| Cc1ccc(-c2noc(CNC(=O)c3ccc(C)cc3Cl)n2)cc1 | -4.82 |
| CCc1ccccc1N(CC(=O)N1CCN(C)CC1)S(C)(=O)=O | -14.4 |
| c1ccc(-c2csc(-c3cccnc3)n2)cc1 | -5.49 |
